{
  "source": "a collection of fitness landscapes (doi:10.1126/science.1257360)",
  "parents": {"B1": {"name": "PhoQ; a variant is named by its letters at X, in order, P23837 (parent)", "chain": "MKKLLRLFFPLSLRVRFLLATAAVVLVLSLAYGMVALIGYSVSFDKTTFRLLRGESNLFYTLAKWENNKLHVELPENIDKQSPTMTLIYDENGQLLWAQRDVPWLMKMIQPDWLKSNGFHEIEADVNDTSLLLSGDHSIQQQLQEVREDDDDAEMTHSVAVNVYPATSRMPKLTIVVVDTIPVELKSSYMVWSWFIYVLSANLLLVIPLLWVAAWWSLRPIEALAKEVRELEEHNRELLNPATTRELTSLVRNLNRLLKSERERYDKYRTTLTDLTHSLKTPLXXLQXXLRSLRSEKMSVSDAEPVMLEQISRISQQIGYYLHRASMRGGTLLSRELHPVAPLLDNLTSALNKVYQRKGVNISLDISPEISFVGEQNDFVEVMGNVLDNACKYCLEFVEISARQTDEHLYIVVEDDGPGIPLSKREVIFDRGQRVDTLRPGQGVGLAVAREITEQYEGKIVAGESMLGGARMEVIFGRQHSAPKDE"}},
  "note": "The other results are listed elsewhere or left out.",
  "data": [
    {"variants_of": "B1", "test": "enrichment ratio after two sorts for PhoP signalling (ratio (wild type AVST 3.29)); higher = more functional", "conditions": "with PhoP (E. coli)", "values": [
      {"variant": "LLVY", "enrichment ratio": "≤ 0.25"},
      {"variant": "YMKH", "enrichment ratio": "≤ 0.25"},
      {"variant": "VLEP", "enrichment ratio": "≤ 0.25"},
      {"variant": "SNLT", "enrichment ratio": 7.56},
      {"variant": "PKDN", "enrichment ratio": "≤ 0.25"},
      {"variant": "DFQL", "enrichment ratio": "≤ 0.25"},
      {"variant": "AVVM", "enrichment ratio": 2.31},
      {"variant": "RMDT", "enrichment ratio": "≤ 0.25"},
      {"variant": "NYGR", "enrichment ratio": "≤ 0.25"},
      {"variant": "GGQH", "enrichment ratio": "≤ 0.25"},
      {"variant": "SNGM", "enrichment ratio": 15.3},
      {"variant": "QLWD", "enrichment ratio": "≤ 0.25"},
      {"variant": "DRKC", "enrichment ratio": "≤ 0.25"},
      {"variant": "VVSW", "enrichment ratio": "≤ 0.25"},
      {"variant": "HIWK", "enrichment ratio": "≤ 0.25"},
      {"variant": "GLLN", "enrichment ratio": "≤ 0.25"},
      {"variant": "YMDV", "enrichment ratio": "≤ 0.25"},
      {"variant": "MHFA", "enrichment ratio": "≤ 0.25"},
      {"variant": "TTFD", "enrichment ratio": "≤ 0.25"},
      {"variant": "PMGV", "enrichment ratio": "≤ 0.25"},
      {"variant": "YIRC", "enrichment ratio": "≤ 0.25"},
      {"variant": "DAAC", "enrichment ratio": "≤ 0.25"},
      {"variant": "HGLG", "enrichment ratio": 0.363},
      {"variant": "ETHA", "enrichment ratio": "≤ 0.25"},
      {"variant": "PTAT", "enrichment ratio": "≤ 0.25"},
      {"variant": "NNFT", "enrichment ratio": "≤ 0.25"},
      {"variant": "FGLW", "enrichment ratio": "≤ 0.25"},
      {"variant": "IGHQ", "enrichment ratio": "≤ 0.25"},
      {"variant": "GGDF", "enrichment ratio": "≤ 0.25"},
      {"variant": "IRTS", "enrichment ratio": "≤ 0.25"},
      {"variant": "GESC", "enrichment ratio": 9.96},
      {"variant": "HQTW", "enrichment ratio": "≤ 0.25"},
      {"variant": "FWEQ", "enrichment ratio": "≤ 0.25"},
      {"variant": "LPSW", "enrichment ratio": "≤ 0.25"},
      {"variant": "RTVF", "enrichment ratio": "≤ 0.25"},
      {"variant": "VKLG", "enrichment ratio": "≤ 0.25"},
      {"variant": "QKGI", "enrichment ratio": "≤ 0.25"},
      {"variant": "WNDL", "enrichment ratio": "≤ 0.25"},
      {"variant": "YQKT", "enrichment ratio": "≤ 0.25"},
      {"variant": "WTPY", "enrichment ratio": "≤ 0.25"},
      {"variant": "NPVS", "enrichment ratio": "≤ 0.25"},
      {"variant": "QSLE", "enrichment ratio": "≤ 0.25"},
      {"variant": "RMTQ", "enrichment ratio": "≤ 0.25"},
      {"variant": "YEYW", "enrichment ratio": "≤ 0.25"},
      {"variant": "WIPY", "enrichment ratio": "≤ 0.25"},
      {"variant": "WKKH", "enrichment ratio": "≤ 0.25"},
      {"variant": "HHCI", "enrichment ratio": "≤ 0.25"},
      {"variant": "VEHF", "enrichment ratio": "≤ 0.25"},
      {"variant": "NYFI", "enrichment ratio": "≤ 0.25"},
      {"variant": "STYS", "enrichment ratio": 0.267},
      {"variant": "VNHG", "enrichment ratio": 0.693},
      {"variant": "YDNI", "enrichment ratio": "≤ 0.25"},
      {"variant": "QLAR", "enrichment ratio": "≤ 0.25"},
      {"variant": "TSER", "enrichment ratio": "≤ 0.25"},
      {"variant": "YHGK", "enrichment ratio": "≤ 0.25"},
      {"variant": "DAGM", "enrichment ratio": "≤ 0.25"},
      {"variant": "FYSW", "enrichment ratio": "≤ 0.25"},
      {"variant": "MCIG", "enrichment ratio": "≤ 0.25"},
      {"variant": "FMPV", "enrichment ratio": "≤ 0.25"},
      {"variant": "QASA", "enrichment ratio": 1.56},
      {"variant": "NQPD", "enrichment ratio": "≤ 0.25"},
      {"variant": "LQLV", "enrichment ratio": "≤ 0.25"},
      {"variant": "TQPY", "enrichment ratio": "≤ 0.25"},
      {"variant": "IALG", "enrichment ratio": 2.3},
      {"variant": "DFGW", "enrichment ratio": "≤ 0.25"},
      {"variant": "KFDW", "enrichment ratio": "≤ 0.25"},
      {"variant": "YMYQ", "enrichment ratio": "≤ 0.25"},
      {"variant": "PPKN", "enrichment ratio": "≤ 0.25"},
      {"variant": "IKGS", "enrichment ratio": "≤ 0.25"},
      {"variant": "RHPN", "enrichment ratio": "≤ 0.25"},
      {"variant": "RSGG", "enrichment ratio": "≤ 0.25"},
      {"variant": "KFSL", "enrichment ratio": "≤ 0.25"},
      {"variant": "SVFC", "enrichment ratio": "≤ 0.25"},
      {"variant": "FDLD", "enrichment ratio": "≤ 0.25"},
      {"variant": "CVPL", "enrichment ratio": "≤ 0.25"},
      {"variant": "PCMM", "enrichment ratio": "≤ 0.25"},
      {"variant": "WGKA", "enrichment ratio": "≤ 0.25"},
      {"variant": "YGAH", "enrichment ratio": "≤ 0.25"},
      {"variant": "DGGG", "enrichment ratio": "≤ 0.25"},
      {"variant": "FYRY", "enrichment ratio": "≤ 0.25"},
      {"variant": "TFSK", "enrichment ratio": "≤ 0.25"},
      {"variant": "MNIK", "enrichment ratio": "≤ 0.25"},
      {"variant": "FFPK", "enrichment ratio": "≤ 0.25"},
      {"variant": "LCVR", "enrichment ratio": "≤ 0.25"}
    ]}
  ]
}
